In all, about 48,000 compounds went through this assay and about 120 (0.25%) were called active. Inconclusive results (about 4%) are left out. Calls come from the whole dose curve; as a rule, active = well fitted activation curve with a large enough effect; inconclusive = small, poorly fitted or top-dose-only effect, or another doubt; inactive = no such curve, though single readings can be large or run the other way. The list shows a part of the results.
assay: Primary qHTS for Identification of Small Molecule Activators of Huntingtin-Antisense Promoter Activity; conditions: HEK293 HTT-AS promoter firefly luciferase reporter, 24 h; series mostly up to 57.5 µM; activity change, positive = activation: at the top concentration; note: nearly all actives have a fitted effect of over 55% in size
Procedure, shortened: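 Firefly luciferase signal from promoter-reporter HEK293 cells was scaled between vehicle (0%) and zero RLU (-100%). Compounds were tested at final concentrations of up to 57.5 uM over 24 h at 37 degrees C. PTC124 at 50 uM final served as control inhibitor.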

Activity change, positive = activation, inactive:
Cc1cccc(-n2c(=O)c3c(c4cc(C)ccc4n3C)n(CC(=O)Nc3ccc(C)cc3C)c2=O)c1 -8.6%
Cc1ccc(C(=O)Nc2ccc3oc(-c4ccncc4)nc3c2)c(Cl)c1 5.65% [at 11.5 µM, percent change from vehicle, -100% = no light]
COc1ccc(-c2cn3c(n2)sc2cc(C(=O)Nc4cc(OC)cc(OC)c4)ccc23)cc1 -17.4%
CCc1ccc(-n2c(=O)c3cccnc3n2CC(=O)Nc2ccccc2C(F)(F)F)cc1 -16.5%
N#Cc1c(NC(=O)CS(=O)(=O)c2ccc(Cl)cc2)sc2c1CCCCC2 -9.32%
COc1ccc(-c2ccc(CCC(=O)O)n2CC(=O)Nc2cccc(C(F)(F)F)c2)cc1 -30.4%
O=C(Nc1cccc(Cl)c1)c1cc(S(=O)(=O)N2CCC3(CC2)OCCO3)ccc1F -35.3%
CCN(CCCNC(=O)Cn1ncc2c3ccccc3n(C)c2c1=O)c1cccc(C)c1 -10%
Cc1ccccc1C(=O)n1nc(-c2cccnc2)nc1NCc1ccc(F)cc1 -19.1%
COc1cc(OC)c(NC(=O)Cn2cnc3c(nc4n3CCCCC4)c2=O)cc1Cl 1.37%
Cc1cc(OCC(=O)Nc2nc3c(s2)CCCC3)cc(C)c1Cl -1.32%
CCOC(=O)c1ccccc1NC(=O)COc1cc(=O)n(CC)c2ccccc12 -12.6%
Cc1cccc(C)c1NC(=O)Cn1c(=O)cc(C)c2c(C)nn(-c3cccc(Cl)c3C)c21 5.42%
COc1ccc(Cl)cc1NC(=O)c1sc2nc3c(cc2c1N)CN(C)CC3 16.8%
CCOc1ccccc1NC(=O)Cn1c(=O)n(Cc2ccccc2)c(=O)c2c3c(sc21)CN(C(C)=O)CC3 -26.9%
O=C(CCC1N=C2c3ccccc3N=C(SCc3ccc(Cl)cc3)N2C1=O)NC1CCCCC1 (configuration not stated) -22.9%
O=C(CN1CCN(C2CCCCC2)C(=O)C1=O)Nc1ccc(Cl)cc1 -11.5%
CC1=C(c2ccc(C)cc2)S(=O)(=O)N(Cc2ccc(C(=O)NCc3ccccc3F)cc2)C1=O -21.8%
O=C1CCCc2[nH]c(=O)c(-c3nc(-c4cccc([N+](=O)[O-])c4)cs3)cc21 -19%
CC(=O)c1ccc(NC(=O)Cn2c(=O)oc3cc(S(=O)(=O)N4CCCCC4)ccc32)cc1 -8.92%
COc1ccc(-c2nc(CNC(=O)NC3CCCCC3)c(C)o2)c(OC)c1 -10.2%
Cc1ccc2c(c1)C(C)(c1ccccc1)CC(C)(C)N2C(=O)c1ccc(F)cc1 (configuration not stated) -45.5%
CCOC(=O)c1cc2c(=O)n3ccccc3nc2n(Cc2ccco2)c1=NC(=O)c1ccc(F)cc1 -7.95%
O=C(CCCn1c(=O)[nH]c2ccccc2c1=O)N1CCN(c2ccccc2)CC1 -7.66%
O=C(CN1C(=O)COc2ccc(S(=O)(=O)N3CCOCC3)cc21)N1CCN(c2ccc(Cl)cc2)CC1 -12.9%
O=S(=O)(NCCc1cn2ccsc2n1)c1ccc(Cl)cc1 -18.3%
CCCCCCc1cc2cc(-c3cn4c(n3)sc3cc(OC)ccc34)c(=O)oc2cc1O -1.6%
CCN1CCN(CCCNC(=O)c2cnn(-c3ccc(OC)cc3)c2C2CCN(C(=O)OC(C)(C)C)CC2)CC1 4.32%
COc1ccc(Cl)cc1C(=O)NCCc1ccc(S(=O)(=O)NC(=O)NC2CCCCC2)cc1 -23%
COC(=O)c1ccc(C(=O)OC)c(NC(=O)c2cnn3c(C(F)F)cc(-c4ccc(C)cc4)nc23)c1 -8.58%
CC1=Nc2cc(C(=O)NC3CCCC3)ccc2Sc2ccc(Cl)cc21 -42.7%
CCOC(=O)c1ccc(Nc2nc3ccccc3n3c(C)nnc23)cc1 4.39%
CCOCCc1nn2c(=O)cc(COC(=O)c3ccccc3NC(=O)CC(C)C)nc2s1 -11.3%
COc1ccc(N(C)S(=O)(=O)c2ccc3c(c2)n(C)c(=O)c(=O)n3C)cc1 -0.223%
CC(C)CN(CC(C)C)S(=O)(=O)c1ccc(C(=O)Nc2sc3c(c2C(N)=O)CCN(C(C)C)C3)cc1 -22.1%
CCOc1ccc(-c2noc(CSc3nnc(Cc4ccccc4)n3-c3ccc(F)cc3)n2)cc1 -36.1%
O=C(Cn1c(-c2cccs2)cc2cc(F)ccc21)N1CCCCC1 -11.4%
Cc1cccc(N2CCN(c3ncnc4c3cnn4-c3ccc(Cl)cc3)CC2C)c1 (configuration not stated) -7.58%
COC(=O)c1scc(-c2ccc(C)cc2)c1S(=O)(=O)N1CCN(c2ccccc2F)CC1 -34.1%
COc1cccc(C(=O)Nc2c3c(nn2-c2ccc(C)cc2C)CS(=O)(=O)C3)c1OC 3.58%
CCC(=O)Nc1ccccc1C(=O)OCc1cc(=O)n2cc(C)sc2n1 -12.2%
COc1ccc(OC)c(NC(=O)Cn2c(CCC(=O)O)ccc2-c2ccccc2)c1 -11.5%
CC(C)CCN1C(=O)c2ccccc2CC1(C)C(=O)NC1CCCCC1 (configuration not stated) -0.676%
CC1CC(=O)N(CC(=O)Nc2ccc(OC(F)(F)F)cc2)c2ccccc2S1 (configuration not stated) -24.8%
CCCN1CCN(C(=O)Cn2ncc3c4ccccc4n(Cc4cccc(Cl)c4)c3c2=O)CC1 -14.2%
O=C(Nc1c(C(=O)N2CCN(c3ccccc3)CC2)oc2ccccc12)c1ccccc1F -18.3%
Cc1cccc(N(C)C(=O)c2cc3c(=O)oc4ccc(C)cc4c3s2)c1 -2.63%
CCOc1ccc(-n2nc3ccc(NC(=O)c4ccc(C)cc4C)cc3n2)cc1 -13.6%
Cc1ccc(CCNC(=O)c2cc3cc(S(=O)(=O)N4CCCCC4)ccc3n2C)cc1 -32.7%
O=C(NCC(c1ccc2c(c1)OCO2)N1CCN(c2ccccc2F)CC1)c1ccccc1F (configuration not stated) -9.9%
COc1ccc(C2CC(=O)N(CC(=O)Nc3ccc(C(C)=O)cc3)c3ccccc3S2)cc1OC (configuration not stated) -42.7%
CCOC(=O)c1c(C)oc2nc(C)nc(N3CCN(c4cccc(C(F)(F)F)c4)CC3)c12 -64.9%
CCOC(=O)c1c(NC(=O)/C=C/c2ccc(Cl)cc2)sc2c1CCC(C)C2 (configuration not stated) -14.5%
COc1ccc(CCC(=O)NC2CC(=O)N(c3ccccc3)C2)cc1 (configuration not stated) -13.1%
Cc1ccccc1C(=O)n1nc(-c2ccco2)nc1NCc1cccs1 14.8%
Cc1ccc2[nH]c(CSc3nnc(NC(=O)COc4ccc(F)cc4)s3)cc(=O)c2c1 -16.5%
COc1cc(Cl)c(C)cc1NC(=O)c1nn(C)c2c1CSc1ccccc1-2 -1.96%
O=C(CCCCn1c(=O)c2ccccc2n(Cc2cccc(Cl)c2)c1=O)NCc1ccc2c(c1)OCO2 -6.04%
COc1ccc(CNC(=O)c2cc(-c3ccc(Cl)cc3)n[nH]2)cc1 -6.66%
O=C(NCc1nc(-c2ccccc2)no1)c1ccco1 -3.06%
COc1ccc(CNC(=O)Cn2ncc3c(=O)oc4ccc(C)cc4c32)c(OC)c1 -14%
Cc1cc(=O)n2[nH]c(NC(=O)c3cccc(Cl)c3)nc2n1 -11.1%
CC1=Nc2cc(C(=O)N3CCCCC3)ccc2Sc2ccc(C)cc21 -10.1%
Cc1c(C(=O)NCc2ccc(OC(C)C)cc2)sc2ncnc(N(C)C3CCCCC3)c12 -23%
COc1ccccc1CCNC(=O)CCCn1c(=O)c2cccn2c2cccnc21 -1.8%
COc1ccc(-c2nc(CN3CCC(C(=O)NCc4ccc(F)cc4)CC3)c(C)o2)cc1OC -14%
CCCC(=O)Nc1nnc(SCc2cc(=O)n3cccc(C)c3n2)s1 -6.48%
CC#C[C@]1(O)CC[C@H]2[C@@H]3CCC4=CC(=O)CCC4=C3[C@@H](c3ccc(N(C)C)cc3)C[C@@]21C
O=C(CSc1nccn1Cc1ccc(Cl)cc1)Nc1ccc2c(c1)OCO2 -13.1%
COc1ccc(NC(=O)C2CCCN(S(=O)(=O)c3c(C)[nH]c(=O)[nH]c3=O)C2)cc1Cl (configuration not stated) -3.35%
O=C(Nc1ccc(Cl)c(C(F)(F)F)c1)C(Cc1ccccc1)NS(=O)(=O)c1cccc2nsnc12 (configuration not stated) -27.7%
CCc1cc2c(cc3c(=O)n(CC(=O)NCCc4ccccc4)ncn32)s1 -0.58%
COc1ccc2oc(=O)c(-c3nc(-c4ccc(C)c(C)c4)cs3)cc2c1 9.84%
CCC(Sc1nc2ncccc2o1)C(=O)Nc1cccc(C)c1 (configuration not stated) 8.74%
Cc1ccc(C)c(NC(=O)c2ccc3c(c2)CCN3S(=O)(=O)c2ccccc2)c1 -11.9%
CCc1cccc(CC)c1NC(=O)N1Cc2[nH]nc(NC(=O)c3ccc(N4CCN(C)CC4)cc3)c2C1 -16.1%
C[N+]1(CC2COC(c3ccccc3)(c3ccccc3)O2)CCCCC1 (configuration not stated) -9.82% [at 25.1 µM, percent change from vehicle, -100% = no light]
CCc1ccc(C2c3c(-c4ccccc4)n[nH]c3C(=O)N2c2ccc(C(=O)O)cc2)cc1 (configuration not stated) -22.8%
C[C@H]1NCc2cc(-c3ccc4c(=O)c(C(=O)O)cn(C5CC5)c4c3OC(F)F)ccc21 -7.28% [at 25.1 µM, percent change from vehicle, -100% = no light]
COc1cccc(-n2cc(C(=O)NCc3ccc(C)cc3)c3ccccc3c2=O)c1 -18.4%
O=C(CN1N=C(c2ccccc2)CCC1=O)NCc1ccc(F)cc1Cl -1.5%
CCn1cc(C(=O)NCCc2ccccc2)c(=O)c2cc(S(=O)(=O)N3CCc4ccccc4C3)ccc21 -19.7%
CCCn1c2ccccc2c2cnn(CC(=O)NCCCN(Cc3ccccc3)C(C)C)c(=O)c21 -19.5%
CCCN(CCC)CCCNC(=O)c1cn(C)c2ccc(S(=O)(=O)N3CCOCC3)cc2c1=O -5.32%
O=S(=O)(NCCc1csc2nc(-c3ccc(Cl)cc3)nn12)c1ccc2c(c1)OCCO2 -30.7%
COc1ccc(-c2cc(C)no2)cc1S(=O)(=O)N1CCOc2ccc(Cl)cc21 -18.7%
COC(=O)c1ccc2c(=O)n(CCCCCC(=O)NCc3ccc(OC)cc3)c(=O)[nH]c2c1 -9.31%
COc1ccc(Nc2cc(C(=O)NCCCN(C)C3CCCCC3)c3ccccc3n2)c(OC)c1 -17.4%
COc1ccc(CCNc2nc(SCc3cccc(F)c3)nc3ccccc23)cc1OC -18.3%
CCC(C)NC(=O)CN1C(=O)c2cccnc2Oc2ccc(C)cc21 (configuration not stated) -2.46%
CC(C)c1ccc(NC(=O)CN2C(=O)COc3ccc(S(=O)(=O)N4CCOCC4)cc32)cc1 0.448%
O=C(CSc1c2c(nc3cc(Cl)ccc13)CCCC2)N1CCN(c2ccccc2F)CC1 -51.2%

Source: PubChem BioAssay AID1508624 (National Center for Advancing Translational Sciences (NCATS), 2021)
